Experimental data from the supplement of paper PMC10126150.
Sequences with one replicate were seen in a single cluster, so their values are uncertain.

system: ATP; assay: switch fluorescence ratio, 500 uM ATP over buffer (Cy3 cluster intensity, sum of 5 cycles each) (fold (ratio)); higher = stronger signal-on switching upon ATP binding; sequences stand for … in TCGTCGGCAGCGTCAGATGTGTATAAGAGACAGTTTTTTTTTTTTTTTTTTTTTTTTT…TC; conditions: aptamer strand: ATP DNA aptamer (quencher-CACCTGGGGGAGTATTGCGGAGGAAGG + anchor), 100 nM annealed; ATP concentration: 500 uM; one replicate
Summary of the method: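 Clusters carrying Cy3-labelled switching strands on a modified Illumina MiSeq flow-cell were annealed to 100 nM quencher-labelled ATP aptamer and imaged in selection buffer. They were imaged again after 15 min with 500 uM ATP at 22 °C, over five buffer/ATP cycles with NaOH stripping and re-annealing in between. For each cluster, the fluorescence ratio is the summed Cy3 intensity of the target cycles divided by that of the buffer cycles, averaged per switch-domain sequence. Clusters outside 100-1000 RFU were left out.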
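Further: ATP exposure 15 min at 22 °C before imaging.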

Sequence	switch fluorescence ratio
TAATGAGGAG	1
TAATGAGTAC	1
TAATGATGGT	1.06
TAATGCATAA	1.02
TAATGCGCTT	1.01
TAATGCGTAC	1.32
TAATGGAGTC	0.987
TAATGGATAT	0.996
TAATGGCAGA	0.973
TAATGGGAGG	0.965
TAATGTATCG	1.05
TAATGTGATT	1.03
TAATGTGTCC	1
TAATGTTCCG	0.991
TAATTAGGCT	0.977
TAATTAGGT	0.995
TAATTAGGTC	0.994
TAATTCAGA	1.02
TAATTCATGG	0.967
TAATTCTTCT	1.03
TAATTCTTGT	1
TAATTGAAAT	1.03
TAATTTAGGC	0.913
TAATTTAGGT	1
TAATTTCCCC	1.06
TAATTTCCTC	1.09

Sequence	switch fluorescence ratio
TAATTTGCTG	0.958
TAATTTGGCG	0.949
TAATTTTAT	0.946
TACAAAATAC	1.65
TACAAAATTC	1.03
TACAACGAGA	1.03
TACAACGGAG	1.04
TACAACGGGG	1.02
TACAAGAATT	1.04
TACAAGCTGC	1.01
TACAAGGACA	1.04
TACAAGGACT	1.03
TACAAGGGA	0.971
TACACAGGTT	1.1
TACACATGTT	1.02
TACACGCAA	2.86
TACACGGTCG	0.964
TACACTCAT	1.01
TACAGCCCAT	1.05
TACAGCGGAC	1.41
TACAGGCCGG	1.02
TACAGGCTGG	1.02
TACAGGGTGA	1.02
TACAGGTGGG	1.18
TACAGTAAAC	1.08
TACAGTCTTC	1.05

Sequence	switch fluorescence ratio
TACATCAG	0.995
TACATGGAGG	0.981
TACATGGCAT	0.975
TACATGGTGG	1.02
TACATTCGAA	0.997
TACATTGAGC	1.05
TACATTTATT	1.01
TACCAAAAGC	1.03
TACCAAAATA	1.05
TACCAAAGTA	1.04
TACCAAGTGC	1.11
TACCACACTG	1.42
TACCAGCCCT	1.05
TACCAGGGTT	1.21
TACCATGGGC	0.971
TACCATGGGG	1.03
TACCCCGCT	1.25
TACCCCGGTT	1.12
TACCCGCCGG	1.04
TACCCGGGGG	1.04
TACCCTAATT	1.06
TACCCTGCTT	1.06
TACCGAAGCC	1.9
TACCGCCAAT	2.28
TACCGCCTGA	1.08
TACCGCGAAC	2.47

Sequence	switch fluorescence ratio
TACCGCGCCC	1.82
TACCGCTCT	1.03
TACCGGCCTC	1.7
TACCGGGCCT	0.998
TACCGTCGGA	1.01
TACCTAAAG	1.04
TACCTACGGT	1.29
TACCTCGTTT	1
TACCTGCTGG	1.07
TACCTTTCGA	1.79
TACGACATTG	1.03
TACGAGATAG	1.2
TACGAGCGAG	1.04
TACGAGGGGT	1.03
TACGAGTAGT	1
TACGATCACA	1.11
TACGATGGAA	1.02
TACGATGTA	1.02
TACGCCGTAA	1.09
TACGCTCTA	1.04
TACGGAGAAG	0.994
TACGGAGTT	1.02
TACGGATCTC	1.01
TACGGCTAA	0.974
TACGGGACAG	1.05
TACGGGATG	1.06

Sequence	switch fluorescence ratio
TACGGGGAAA	0.98
TACGGTATTG	1.11
TACGGTGTCG	1.04
TACGTAATTA	1.22
TACGTACGCA	1.69
TACGTAGTTT	0.998
TACGTCACTT	1.65
TACGTCATGG	1.16
TACGTCGAGC	1.01
TACGTCGGTG	0.953
TACGTTAAGT	1.02
TACGTTTGTG	0.947
TACTAAGACC	1.01
TACTACGGCC	1.06
TACTAGACGA	1.22
TACTAGGCTT	1.02
TACTAGGTAA	1.01
TACTAGGTTG	1.06
TACTATAAGG	1.4
TACTCACTAC	1.44
TACTCAGAA	1.02
TACTCCAGGG	1.72
TACTCCCCAC	2.76
TACTCGACGA	1.09
TACTCGCCGA	1.04
TACTCGCGAT	3.23

Sequence	switch fluorescence ratio
TACTCGGAAA	1.18
TACTCGTGGG	0.958
TACTCTCAGA	1.02
TACTGAAATG	1.01
TACTGAATCG	1
TACTGAATCT	1.05
TACTGCATGC	1.19
TACTGCTGT	0.996
TACTGGGGAT	1
TACTGGGTG	1.12
TACTGTCGGA	1.01
TACTGTGCAG	1.01
TACTTACAAC	1.17
TACTTAGAGT	1
TACTTCGTGA	1.63
TACTTCGTTA	1.03
TACTTGGGCT	1.02
TACTTGTAGG	0.943
TACTTTTGTC	1.01
TACTTTTTC	0.968
TAGAAAACGT	1.04
TAGAAATCAT	0.952
TAGAACGGGT	0.992
TAGAAGCCCG	1.02
TAGAAGCTAG	1
TAGAAGGCAC	1.03

Sequence	switch fluorescence ratio
TAGAAGGCAT	1.02
TAGAAGTACG	1.11
TAGAATATGG	0.992
TAGAATTAGA	1.01
TAGAATTGGA	1.05
TAGACAAGCT	1.02
TAGACCATGC	1.1
TAGACGATA	1
TAGACGGGTT	1.02
TAGACGGTCT	1.05
TAGACGTAAT	1.22
TAGACTTTGT	0.996
TAGAGAATCC	1.01
TAGAGACAAC	1.02
TAGAGCATGG	0.979
TAGAGGAACA	0.983
TAGAGGCTAT	0.981
TAGAGGGATT	1
TAGAGGGGTA	1.02
TAGAGGGTCA	1.01
TAGAGGTGCT	1.02
TAGAGTAATG	1.02
TAGATAAGGA	0.997
TAGATATGGC	0.989
TAGATCAGAC	1.01
TAGATCAGTA	1.01

Sequence	switch fluorescence ratio
TAGATGAAGC	1.03
TAGATGACGT	1.02
TAGATGCAAG	0.946
TAGATGTC	1.02
TAGATGTCGT	1.01
TAGATTGTAC	1.03
TAGCAAATTT	0.994
TAGCAAGTTT	1.06
TAGCAATTTC	3.93
TAGCACAT	1.06
TAGCACTACA	1.17
TAGCACTAT	1.09
TAGCAGAAAG	0.961
TAGCAGAATG	1.05
TAGCATAGA	0.998
TAGCATGCCC	1.09
TAGCCAGTAT	1.14
TAGCCAGTTG	1.02
TAGCCCATAC	1.55
